Source: US20080193398A1, “Derivatives of Heptaazaphenalene, Methods for Obtaining Them, and Their Use as Protecting Agents Against Uv Radiation” (ISDIN, S.A., priority 2005, published 2008)
“And” between values parts separate entries of the source, which are not always exact repeats. Identical values can stand only once. At least one structure is not confirmed: it was looked up by name or label, or the drawing left a doubt.

assay: UV absorption (UV λmax and εmax) in solution; format: physicochemical; settings: CHCl3
Excerpt: There follow some examples where the UV λmax and εmax have been measured according to general methods known for the person skilled in the art by way of non-restrictive illustration of the present invention.

Row | SMILES | UV λmax [nm] | εmax [M⁻¹ cm⁻¹]
1 | CCCCC(CC)CNC(=O)c1ccc(NC2=NC3=NC(Nc4ccc(C(=O)NCC(CC)CCCC)cc4)=NC4=NC(Nc5ccc(C(=O)NCC(CC)CCCC)cc5)=NC(=N2)N34)cc1 (stereo not drawn) [Example 43, 2,5,8-tris-(4-((2-ethylhexyl)carbamoyl)phenylamino)-1,3,4,6,7,9,9b-heptaazaphenalene] | 326 | 118000

same assay, conditions: DMSO

Row | SMILES | UV λmax | εmax
2 | Oc1cc(NC2=NC3=NC(Nc4ccc(-c5nc6ccccc6[nH]5)c(O)c4)=NC4=NC(Nc5ccc(-c6nc7ccccc7[nH]6)c(O)c5)=NC(=N2)N34)ccc1-c1nc2ccccc2[nH]1 [Example 26, 2,5,8-tris-(4-(1H-benzo[d]imidazol-2-yl)-3-hydroxyphenylamino)-1,3,4,6,7,9,9b-heptaazaphenalene] | 354 nm and 368 nm | 122000 M⁻¹ cm⁻¹ and 123000 M⁻¹ cm⁻¹
3 | CC(CCOC(=O)c1ccc(NC2=NC3=NC(Nc4ccc(C(=O)OCCC(C)CC(C)(C)C)cc4)=NC4=NC(Nc5ccc(C(=O)OCCC(C)CC(C)(C)C)cc5)=NC(=N2)N34)cc1)CC(C)(C)C (stereo not drawn) [Example 39, 2,5,8-tris-(4-((3,5,5-trimethylhexyloxy)carbonyl)phenylamino)-1,3,4,6,7,9,9b-heptaazaphenalene] | 326 nm | 126000 M⁻¹ cm⁻¹
4 | CC(C)CCCC(C)CCOC(=O)c1ccc(NC2=NC3=NC(Nc4ccc(C(=O)OCCC(C)CCCC(C)C)cc4)=NC4=NC(Nc5ccc(C(=O)OCCC(C)CCCC(C)C)cc5)=NC(=N2)N34)cc1 (stereo not drawn) [Example 47, 2,5,8-tris-(4-((3,7-dimethyloctyloxy)carbonyl)phenylamino)-1,3,4,6,7,9,9b-heptaazaphenalene] | 329 nm | 125000 M⁻¹ cm⁻¹
5 | COc1cccc(NC2=NC3=NC(Nc4cccc(OC)c4)=NC4=NC(c5cccn5C)=NC(=N2)N34)c1 [Example 41] | 352 nm | 57000 M⁻¹ cm⁻¹
6 | Oc1ccc(C2=NC3=NC(c4ccc(O)cc4O)=NC4=NC(c5ccc(O)cc5O)=NC(=N2)N34)c(O)c1 [Example 11, 2,5,8-tris-(2,4-dihydroxyphenyl)-1,3,4,6,7,9,9b-heptaazaphenalene] | 394 nm | 56000 M⁻¹ cm⁻¹
